The whole screen tested about 310,000 compounds, of which about 14,000 (4.5%) showed an effect of 50% or more. Effects have a minus sign here. The list shows a part of the results.
Target: human ether-à-go-go-related gene (hERG) potassium channel (human, UniProt Q12809)
Test: primary screen, population patch clamp on CHO cells stably expressing hERG
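Further: peak tail current of the secondary pulse compared with the same well before compound.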

Sequence of human ether-à-go-go-related gene (hERG) potassium channel (Q12809 whole entry, looked up): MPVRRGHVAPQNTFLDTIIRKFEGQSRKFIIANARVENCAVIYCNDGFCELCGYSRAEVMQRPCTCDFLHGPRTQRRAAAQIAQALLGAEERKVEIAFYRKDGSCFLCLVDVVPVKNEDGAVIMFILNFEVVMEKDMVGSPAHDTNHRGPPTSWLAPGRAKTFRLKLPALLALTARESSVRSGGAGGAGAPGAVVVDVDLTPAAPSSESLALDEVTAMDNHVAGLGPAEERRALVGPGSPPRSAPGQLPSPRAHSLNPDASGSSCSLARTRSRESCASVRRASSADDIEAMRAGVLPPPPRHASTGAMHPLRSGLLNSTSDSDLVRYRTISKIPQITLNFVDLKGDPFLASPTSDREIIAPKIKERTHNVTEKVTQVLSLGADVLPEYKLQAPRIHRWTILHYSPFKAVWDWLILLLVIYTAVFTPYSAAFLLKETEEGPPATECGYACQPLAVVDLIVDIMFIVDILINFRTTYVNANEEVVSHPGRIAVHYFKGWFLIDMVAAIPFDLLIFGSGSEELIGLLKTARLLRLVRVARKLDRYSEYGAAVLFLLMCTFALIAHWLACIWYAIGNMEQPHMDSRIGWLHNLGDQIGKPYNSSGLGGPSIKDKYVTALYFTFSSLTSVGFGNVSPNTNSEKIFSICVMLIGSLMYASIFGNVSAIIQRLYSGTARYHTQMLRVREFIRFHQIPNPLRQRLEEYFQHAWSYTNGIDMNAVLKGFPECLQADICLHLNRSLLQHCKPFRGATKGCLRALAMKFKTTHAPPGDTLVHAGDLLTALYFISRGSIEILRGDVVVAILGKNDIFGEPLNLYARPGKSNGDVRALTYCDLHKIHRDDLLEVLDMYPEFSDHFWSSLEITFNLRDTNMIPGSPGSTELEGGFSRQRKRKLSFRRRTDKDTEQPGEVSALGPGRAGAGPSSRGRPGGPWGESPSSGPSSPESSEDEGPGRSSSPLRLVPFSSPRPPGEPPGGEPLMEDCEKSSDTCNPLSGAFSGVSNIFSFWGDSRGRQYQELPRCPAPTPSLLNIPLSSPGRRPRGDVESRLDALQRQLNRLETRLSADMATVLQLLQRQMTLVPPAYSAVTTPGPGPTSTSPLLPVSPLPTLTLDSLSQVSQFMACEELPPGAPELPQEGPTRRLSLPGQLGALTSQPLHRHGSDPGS

Structure (SMILES)	hERG current change (%, negative = inhibition) at 10uM
O=C(Nc1nnc(SCc2ccc(Cl)cc2)s1)c1cnccn1	-6.91%
O=c1cc(-c2ccccc2)nc(/C=C/c2ccccc2)[nH]1	5.21%
Cc1nnc(NCc2ccco2)c2ccccc12	-17.1%
COC(=O)C1=C(C(=O)OC)[C@@H]2Nc3ccccc3[C@@]23C[C@@H](C(=O)OC)N(C(=O)CC(C)C)C3=N1	-10.7%
CS(=O)(=O)NCCSc1cc(C(F)(F)F)nc2ccccc12	-2.35%
O=C(NC1CCCC1)C(c1ccco1)N(C(=O)c1ccco1)c1ccc(F)cc1 (stereo not drawn)	2.55%
O=C(NCc1nnc(SCC(=O)N2CCCCCC2)o1)c1ccco1	13.6%
CC(C)c1ccc(CNc2ccc3c(c2)ncn3C)cc1	9.16%
CC1CCCN(C(=O)C2CCN(S(=O)(=O)c3cccc4nsnc34)CC2)C1 (stereo not drawn)	-17.9%
CN(CC(=O)Nc1ccccc1Br)C(=O)CCC1CCCC1	9.57%
C/C(=N\Nc1nc(-c2cc(C)ccc2C)cs1)c1cc2c(ccc3ccccc32)oc1=O	15.7%
O=C(/C=C/c1c(F)cccc1Cl)c1ccc(F)cc1	15.2%
CCN(CC)Cc1c(O)ccc2c(=O)c(Oc3ccccc3OC)c(C)oc12	17.4%
CCC(C(=O)NC1CCCC1)N(C(=O)Cn1nnc(-c2ccc(C)cc2)n1)C1CCCC1 (stereo not drawn)	-5.48%
CC(=O)Nc1ccc(S(=O)(=O)Nc2nnc(C(C)(C)C)s2)cc1	11.8%
O=C(NCc1cccs1)C1CCCN1C(=O)NC1CCCCC1 (stereo not drawn)	11.6%
CCC(C)(C)c1ccc(Oc2cccc(C(=O)O)c2)cc1	11.5%
Cc1ccc(C(=O)N2CCN(S(=O)(=O)c3sc(C(=O)O)c(C)c3C(=O)O)CC2)s1	17.8%
O=S(=O)(Cc1ccccc1)NCC1CCCN(Cc2ccc3nonc3c2)C1 (stereo not drawn)	-51.2%
Cc1c(N=C2NC(=O)/C(=C/c3cccc([N+](=O)[O-])c3)S2)c(=O)n(-c2ccccc2)n1C	-13.4%
O=C(Cn1c(CC(=O)N2CCCC2)nc2ccccc21)NCc1ccccc1	-7.45%
CC(C)(C)OC(=O)N1CCCC1C(=O)N1CCc2ccccc21 (stereo not drawn)	14.5%
CCCCCCNC(=O)c1cn(CC)c2cc(N3CCN(C)CC3)c(F)cc2c1=O	-3.97%
CCOc1cc(/C=C(\C#N)C(N)=O)ccc1OCc1c(C)no[n+]1[O-]	-0.204%
CC(C)CNC(=O)c1cccc(C(=O)NCC(C)C)c1	-0.427%
CC(C)Cn1c(N2CCN(C(=O)/C=C/c3ccccc3)CC2)nc2ccccc21	-69.1%
CC(C(=O)NCc1ccccc1Cl)N1C(=O)c2ccccc2C1=O (stereo not drawn)	-12.9%

Structure (SMILES)	hERG current change (%, negative = inhibition) at 10uM
CCOC(=O)N1CCN(S(=O)(=O)N2CCCC(C(=O)NC(C)c3ccccc3)C2)CC1 (stereo not drawn)	3.52%
O=C(c1ccc(NS(=O)(=O)c2ccc(F)cc2)cc1)N1CCN(c2ccccc2O)CC1	-4.67%
CCN(CC)C(=O)c1cn(-c2cccc(OC)c2)c(=O)c2ccccc12	9.66%
CCCOc1ccc(C(=O)Nc2ccc(N(C)C)cc2)cc1	3.58%
O=C1C(Nc2ccccc2)=C(NS(=O)(=O)c2ccccc2)C(=O)c2ccccc21	-3.21%
COc1ccc(-c2nc(-c3ccncc3)no2)cc1OC	-10.8%
C=CCn1c(=O)c(C(C)=O)cn(N(C)c2ncc(C(F)(F)F)cc2Cl)c1=O	-2.57%
Cn1cc(C(=O)NC2CCCCCCC2)c(=O)c2cc(S(=O)(=O)N3CCCC3)ccc21	10.4%
COCc1nnc(NC(=O)C(C)C)s1	6.69%
CCNc1nc(NCC)nc(NS(=O)(=O)c2ccc(N)cc2)n1	22.7%
Cc1cccc(OC(C)C(=O)OCC(=O)Nc2sccc2C(N)=O)c1 (stereo not drawn)	-6.98%
C/C(=N\NC(=O)c1cccc(N/N=C(\C)c2cc(O)ccc2O)c1)c1cc(O)ccc1O	9.41%
O=C(Nc1ncc([N+](=O)[O-])s1)c1ccco1	17.5%
Cc1ccc(S(=O)(=O)Nc2nc(C)c(NC(=O)OCCCl)s2)cc1	-6.07%
COc1cc(NC(=O)c2cc3c(C)nc4ccccc4c3o2)cc(OC)c1OC	0.269%
O=C(CCN1C(=O)c2ccccc2C1=O)Nc1cccc(S(=O)(=O)NC2=NCCC2)c1	30.4%
Cc1c(Cl)ccc2c1NC(=O)C21NC(CCC(N)=O)[C@H]2C(=O)N(c3ccc(Cl)cc3)C(=O)[C@H]21 (stereo partly drawn)	7.5%
CCCn1c(C)c(C(=O)OCC)c(O)c(-c2ccccc2)c1=O	19.5%
CCOc1cccc(C2/C(=C(/O)c3ccc4c(c3)CC(C)O4)C(=O)C(=O)N2Cc2cccnc2)c1 (stereo not drawn)	17.9%
COc1ccccc1NC(=O)C1CCCN(c2cc(C)nc3ncnn23)C1 (stereo not drawn)	-20.8%
O=C(CSc1nc2ccccc2c(=O)n1-c1ccccc1)c1c[nH]c2ccccc12	-3.27%
CCN(CC)CCNC(=S)Nc1ccc2nc(N3CCN(CC)CC3)cc(C)c2c1	11.2%
COc1cc2c(cc1OC)CN(c1nc(CN3CCOCC3)nc3sc4c(c13)CCC(C)C4)CC2 (stereo not drawn)	-67.5%
Nc1ccc2nc(-c3ccccc3)sc2c1	23.4%
O=c1cc(CN2CCN(S(=O)(=O)c3ccccc3)CC2)nc2sccn12	-2.25%
CN(C)S(=O)(=O)Oc1ccc(Cl)cc1C(=O)Nc1ccc(F)cc1F	-3.01%
CCC(C)n1ncn(-c2ccc(N3CCN(c4ccc(OC)cc4)CC3)cc2)c1=O (stereo not drawn)	-1.99%

— PMC4336329 (PLoS ONE, 2015)
